Key:
Experiment in all cases: microbe, parasite or virus in culture
Type in all cases: cell-based
[1] = tested on: influenza A/Puerto Rico/8/1934 (PR/8, H1N1) virus; details: MDCK, 72 h, read-out: Anti-PR/8 (H1N1), Activities (EC50)
[2] = tested on: A/Hong Kong/8/68 (HK/68, H3N2); details: Influenza A virus, MDCK cells, MOI 0.005, 72 h, CPE inhibition
[3] = tested on: A/WSN/33 (H1N1); details: Influenza A virus, MDCK, 72 h, read-out: A/WSN/33 EC50
[4] = tested on: influenza B/Lee/40 virus; details: MDCK, 72 h, read-out: B/Lee/40 EC50

| Compound | EC50 [1] | EC50 [2] | EC50 [3] | EC50 [4] |
| --- | --- | --- | --- | --- |
| NS(=O)(=O)CCCC(=O)NCc1ccc2[nH]c3c(c2c1)CCCCCC3 [13D7] | 26.3 ± 13.8 µM | – | – | – |
| Cc1cc(CN2CCOc3c(O)cc(-c4ccccc4Cl)cc3C2)on1 [11C6] | 35.6 ± 1.74 µM | – | – | – |
| Cc1c(-c2ccccc2F)[nH]c2ccc(CNC(=O)CCc3cc(O)no3)cc12 [11C5] | 55.5 ± 27.7 µM | – | – | – |
| C=CCn1cc(-c2cc(-c3ccc(C(=O)O)cc3)[nH]c(=N)c2C#N)cn1 [12C5] | 30.9 ± 2.58 µM | 30.1 ± 12.8 µM | 24.1 ± 6.14 µM | 25.1 ± 2.57 µM |
| CCC(CC)O[C@@H]1C=C(C(=O)O)C[C@H](N)[C@H]1NC(C)=O [OC, Oseltamivir carboxylate, reference compound] | 1.78 ± 0.72 µM | 0.004 ± 0.001 µM | – | 4.04 ± 0.58 µM |
| c1cc(Cn2ccnc2-c2nc3c(s2)CCCC3)cc(-c2nnn[nH]2)c1 [12B1] | 53.9 ± 10.4 µM | – | – | – |
| Cc1cccnc1CCNc1nc2nonc2nc1NCc1cccs1 [21B1] | 67.7 ± 43.3 µM | > 100 µM | 57.4 ± 15.5 µM | 60.4 ± 1.41 µM |
| O=C(NCc1nc(C2CCCCC2)no1)c1cc(-c2ccccc2F)n[nH]1 [11C8] | 26.4 ± 12 µM | – | – | – |
| O=C(O)[C@H]1C2CCC(CC2)[C@@H]1Nc1nc(-c2c[nH]c3ncc(F)cc23)ncc1F [VX-787, reference compound] | < 0.005 µM | – | – | > 10 µM |
| c1csc(CNc2nc3nonc3nc2NCCCN2CCOCC2)c1 [11D2] | 0.3 ± 0.02 µM | – | – | – |
| CCSc1ncc(-c2cc(-c3c(C)nn(C)c3C)nc(N)c2C#N)cn1 [21A5] | 22.1 ± 11 µM | 25.6 ± 18.8 µM | 14.8 ± 6.31 µM | 33.8 ± 0.68 µM |
| C=CCn1cc(CNCc2noc(-c3ccc4c(c3)OCO4)n2)c(C)n1 [11D4] | 6.2 ± 2.85 µM | 25.8 ± 1.89 µM | 19.2 ± 6.28 µM | 11.3 ± 0.15 µM |
